Laboratory results reported in PubChem BioAssay AID1460 (National Center for Advancing Translational Sciences (NCATS), 2008).
Values joined by “and” are separate entries in the source; they are usually repeats but may differ in a detail not shown here. Equal values may be shown once. About 5,800 (2.1%) of roughly 270,000 compounds were called active. Inconclusive means that the source gave no clear call. Such entries were picked first, then a sample of the others. Calls follow the shape of the dose curve; as a rule, active = well fitted inhibition curve with a large enough effect; inconclusive = small, poorly fitted or top-dose-only effect; inactive = flat fitted curve, though single readings scatter. Where the call is inconclusive, the potency comes from a doubtful curve fit.
Also: nearly all actives have a fitted effect of over 55% in size.
Potency is read from the fitted curve at half-maximal effect; tags tell the direction and shape of the fitted curve.

What follows are molecules tested against Microtubule-associated protein tau (Homo sapiens) (UniProt P10636) (assay: qHTS for Inhibitors of Tau Fibril Formation, Thioflavin T Binding). Conditions: recombinant tau K18 P301L (four-repeat tau fragment), heparin-induced fibrillization, ThT fluorescence; series mostly up to 57.4 µM.
Sequence of UniProt P10636 (P10636 whole entry, looked up, the tested form may be a part): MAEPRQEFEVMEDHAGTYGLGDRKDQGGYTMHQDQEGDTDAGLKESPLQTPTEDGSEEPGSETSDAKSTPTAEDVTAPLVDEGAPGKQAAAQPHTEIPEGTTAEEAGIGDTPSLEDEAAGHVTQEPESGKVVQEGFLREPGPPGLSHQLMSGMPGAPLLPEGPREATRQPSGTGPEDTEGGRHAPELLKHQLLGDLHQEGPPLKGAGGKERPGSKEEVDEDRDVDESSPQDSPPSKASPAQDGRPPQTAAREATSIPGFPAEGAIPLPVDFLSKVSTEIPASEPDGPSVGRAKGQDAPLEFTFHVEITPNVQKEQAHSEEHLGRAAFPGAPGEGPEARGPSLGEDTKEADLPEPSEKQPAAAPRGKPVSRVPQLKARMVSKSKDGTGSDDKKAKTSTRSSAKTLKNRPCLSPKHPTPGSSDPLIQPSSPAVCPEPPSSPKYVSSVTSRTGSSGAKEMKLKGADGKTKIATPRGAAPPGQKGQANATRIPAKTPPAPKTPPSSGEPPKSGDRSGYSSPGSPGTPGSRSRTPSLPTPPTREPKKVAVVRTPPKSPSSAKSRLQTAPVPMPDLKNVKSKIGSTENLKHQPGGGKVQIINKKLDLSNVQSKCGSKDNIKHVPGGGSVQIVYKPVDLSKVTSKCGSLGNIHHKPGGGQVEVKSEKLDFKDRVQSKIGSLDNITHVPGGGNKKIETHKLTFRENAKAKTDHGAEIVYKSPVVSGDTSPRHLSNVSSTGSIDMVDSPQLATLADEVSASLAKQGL
How it was run: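 Heparin-induced fibrillization of the P301L-mutant K18 repeat-domain fragment of human tau was followed by ThT binding in quantitative high-throughput format.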
In the case of `CCOC(=O)C1=NO[C@@]2(C=C(Br)C(=O)[C@H]3O[C@H]32)C1`, the Potency is reported as active: 15.8 µM.
`CCNC(=O)c1cc2c(=O)n3cccc(C)c3nc2n(CCc2ccccc2)c1=N` was tested, and the Potency was “inactive”.
With `Cc1cc(C)c2cc(C(O)c3nnnn3Cc3ccccc3)c(=O)[nH]c2c1` (stereo unspecified) the Potency was “inactive”.
`COc1cnc(-c2ccccn2)nc1N(C)C` was tested, and the Potency was inconclusive: 35.5 µM [inhibitor, single point].
For `CSc1nn(Cc2ccc(Cl)cc2)c(N(C(C)=O)C(C)=O)c1S(=O)(=O)c1ccccc1`, the Potency was inconclusive: 17.8 µM [inhibitor, partial curve].
With `O=C1C2C3C=CC([C@@H]2C(=O)N1C1CC1)[C@H]1C(=O)N(C2CC2)C(=O)C31` (stereo partly specified) the Potency was “inactive”.
In the case of `Cc1[nH]n(-c2ccccc2)c(=O)c1/C=N/N(c1ccccc1)c1ccccc1`, the Potency is reported as inconclusive: 15.8 µM [inhibitor, partial curve].
In the case of `O=C(c1ccc(-c2ccccc2)cc1)C1CCCN(Cc2ccncc2)C1` (stereo unspecified), the Potency is reported as “inactive”.
`Nc1c(C(=O)OCC2CCCO2)c2nc3ccccc3nc2n1-c1ccc2c(c1)OCCO2` (stereo unspecified) was tested, and the Potency was inconclusive: 39.8 µM [inhibitor, single point].
For `Cc1cc(C(=O)CSc2nnnn2-c2ccc(O)cc2)c(C)n1C`, the Potency was “inactive”.
In the case of `COc1ccc(-c2csc(Nc3ccc(S(N)(=O)=O)cc3)n2)cc1OC`, the Potency is reported as inconclusive: 8.91 µM [inhibitor, partial curve].
`C=CCNC(=O)c1ccc(C(=O)c2ccccc2)cc1` was tested, and the Potency was “inactive”.
`CC(C)c1ccc(N2C(=O)CC(Sc3nc4ccccc4o3)C2=O)cc1` (stereo unspecified) was tested, and the Potency was inconclusive: 11.2 µM [inhibitor, partial curve, poor fit].
`COc1ccccc1N1CCN(C(=O)c2ccc3c(Cl)c4c(nc3c2)CCCC4)CC1` was tested, and the Potency was inconclusive: 17.8 µM [inhibitor, partial curve].
`Cc1ccc(CNC(=O)CCCCCn2c(=O)c3sccc3n(CC(=O)N(C)c3ccccc3)c2=O)cc1` was tested, and the Potency was “inactive”.
With `Cc1ccc(-c2ccc(CCC(=O)O)n2-c2cccc(O)c2)cc1` the Potency was inconclusive: 22.4 µM [inhibitor, partial curve] and inconclusive: 28.2 µM [inhibitor, single point].
For `CNc1nc2c(C)cccn2c(=O)c1C=Nc1ccc(OC)cc1`, the Potency was inconclusive: 22.4 µM [inhibitor, single point].
With `O=C1c2ccccc2C(=O)c2c1cccc2N1CCCC1` the Potency was active: 14.1 µM.
`CCCCn1nnnc1NCc1ccc(OC)c(OC)c1OC` was tested, and the Potency was inconclusive: 22.4 µM [inhibitor, partial curve].
In the case of `COc1ccc(/C=C/C(=O)Nc2sc3c(c2C(N)=O)CCCC3)cc1`, the Potency is reported as inconclusive: 1.78 µM [inhibitor, full curve].
`O=C(COC(=O)/C=C/c1ccc([N+](=O)[O-])cc1)NCc1ccc2c(c1)OCO2` was tested, and the Potency was inconclusive: 7.08 µM [inhibitor, full curve, poor fit].
With `Cc1cc(C)cc(OCCCOc2cccc3cccnc23)c1` the Potency was inconclusive: 17.8 µM [inhibitor, partial curve].
In the case of `O=[N+]([O-])c1ccc(N2CCN(CCOc3nonc3-c3ccccc3)CC2)c(Cl)c1`, the Potency is reported as inconclusive: 25.1 µM [inhibitor, partial curve].
For `CCOC(=O)c1cc2c(C)n(-c3ccc(OCC)cc3)c(C)c2ccc1=O`, the Potency was inconclusive: 20 µM [inhibitor, partial curve].
`CCn1c(=O)cc(SCC(=O)NCCc2ccc(Cl)cc2)c2ccccc21` was tested, and the Potency was inconclusive: 44.7 µM [inhibitor, single point].
In the case of `CN(/N=C/c1ccncc1)c1cnc2ccccc2n1`, the Potency is reported as inconclusive: 1.58 µM [inhibitor, full curve].
With `O=C(NNC(=O)c1cccs1)c1ccc([N+](=O)[O-])cc1` the Potency was inconclusive: 17.8 µM [inhibitor, partial curve].
In the case of `N/C(=N\NC(=O)c1ccc(F)cc1)c1cc2ccccc2oc1=O`, the Potency is reported as inconclusive: 10 µM [inhibitor, partial curve].
For `Cc1cccc(N2CCN(Cc3cnc(Cl)s3)CC2C)c1` (stereo unspecified), the Potency was inconclusive: 35.5 µM [inhibitor, single point].
With `CCn1c(SCC(=O)N/N=C/C=C\c2ccccc2[N+](=O)[O-])nnc1-c1ccccc1` the Potency was inconclusive: 14.1 µM [inhibitor, partial curve].
For `Cc1oc(-c2ccccc2)nc1CS(=O)CC(=O)N1CCc2ccccc2C1` (stereo unspecified), the Potency was inconclusive: 35.5 µM [inhibitor, single point].
For `CC1Cc2ccccc2N1CC(=O)Nc1ccc(S(N)(=O)=O)cc1` (stereo unspecified), the Potency was inconclusive: 3.16 µM [inhibitor, partial curve, poor fit].
`COc1ccccc1CN1COc2ccc3c(oc(=O)c4ccccc43)c2C1` was tested, and the Potency was inconclusive: 15.8 µM [inhibitor, partial curve].
In the case of `Fc1ccc(-c2cc3nc4c(c(N5CCOCC5)n3n2)CCCC4)cc1`, the Potency is reported as inconclusive: 11.2 µM [inhibitor, partial curve].
In the case of `CN1C(=O)c2oc3ccccc3c(=O)c2C1c1ccncc1` (stereo unspecified), the Potency is reported as inconclusive: 20 µM [inhibitor, partial curve].
For `O=C(CCN1C(=O)C2C3C=CC(C3)C2C1=O)N1CC(=O)N(CCc2ccccc2)C(=O)C1` (stereo unspecified), the Potency was “inactive”.
With `Cc1cc(C)n2c(nc3ccccc32)c1C(=O)NCc1ccccc1` the Potency was inconclusive: 25.1 µM [inhibitor, single point].
With `O=C1NCCN(Cc2ccoc2)C1CC(=O)N(Cc1ccccc1)CC1CCC1` (stereo unspecified) the Potency was inconclusive: 31.6 µM [inhibitor, partial curve].
With `C=C(Br)Cn1c(CCC)nc2ccccc21` the Potency was “inactive”.
`Cc1onc(-c2ccccc2)c1C(=O)N1CCN(C/C=C/c2ccccc2)CC1` was tested, and the Potency was “inactive”.
For `Cc1[nH][nH]c(=O)c1C(c1ccc(-c2cccc(C(=O)O)c2)o1)c1c(C)[nH][nH]c1=O`, the Potency was active: 14.1 µM.
With `COc1ccc(Nc2nc3ccccc3c3nnc(C)n23)cc1Cl` the Potency was inconclusive: 14.1 µM [inhibitor, partial curve].
With `CCN1CCCC1CN(Cc1cc2ccc(C)c(C)c2[nH]c1=O)C(=O)Nc1ccccc1OC` (stereo unspecified) the Potency was inconclusive: 25.1 µM [inhibitor, single point].
`COc1cc(NC(=O)c2ccc(Br)o2)c(C(=O)O)cc1OC` was tested, and the Potency was inconclusive: 31.6 µM [inhibitor, single point].
For `CN=C1S/C(=C\c2cc(C)n(-c3ccccc3F)c2C)C(=O)N1C`, the Potency was inconclusive: 20 µM [inhibitor, partial curve, poor fit].
For `CCCc1nn2c(=O)c(C(c3ccc(C)cc3)c3c(O)nc4sc(CCC)nn4c3=O)c(O)nc2s1`, the Potency was “inactive”.
With `O=S(=O)(c1ccc2c(c1)OCCO2)N(Cc1ccc(F)cc1)Cc1nnc(-c2cccs2)o1` the Potency was “inactive”.
In the case of `CCC(C)c1ccccc1NC(=O)COC(=O)c1ccc(N2CCCC2)c([N+](=O)[O-])c1` (stereo unspecified), the Potency is reported as inconclusive: 12.6 µM [inhibitor, partial curve].
`O=C(Nc1ncc2c(n1)CC(c1ccco1)CC2=O)c1ccc(Cl)cc1` (stereo unspecified) was tested, and the Potency was inconclusive: 31.6 µM [inhibitor, partial curve].
In the case of `Cn1cnc([N+](=O)[O-])c1Sc1nnc(-c2cccnc2)n1C`, the Potency is reported as inconclusive: 12.6 µM [inhibitor, partial curve].
With `Cc1cc(C(F)(F)F)n(-c2nc(C(=O)NNS(=O)(=O)c3ccccc3[N+](=O)[O-])cs2)n1` the Potency was inconclusive: 31.6 µM [inhibitor, partial curve].
In the case of `Cc1cccc(C(=O)NC(=S)Nc2ccccc2C(F)(F)F)c1`, the Potency is reported as “inactive”.
`O=C(Oc1cc(=O)n2ccccc2n1)c1ccccc1` was tested, and the Potency was inconclusive: 28.2 µM [inhibitor, single point].
`CC(=O)Nc1cc(C(=O)c2ccccc2)ccc1N1CCOCC1` was tested, and the Potency was “inactive”.
For `CCOC(=O)Cc1c(C)c2ccc(N(CC)CC)cc2oc1=O`, the Potency was active: 14.1 µM.
In the case of `CC(=O)c1ccc(N/N=C(/C(N)=O)C2=NC(C)(C)Cc3ccccc32)cc1`, the Potency is reported as inconclusive: 20 µM [inhibitor, partial curve].
With `Cc1cc(/C=N/NC(=O)c2cccc([N+](=O)[O-])c2)c(C)n1-c1ccccc1` the Potency was inconclusive: 20 µM [inhibitor, partial curve].
In the case of `CCCc1nc2ccccc2n2c(-c3ccc(C)cc3)c3c(=O)n(C)c(=O)n(C)c3c12`, the Potency is reported as inconclusive: 14.1 µM [inhibitor, partial curve, poor fit].
`CC(C)c1ccc(NC(=O)c2cccc3c2C(=O)N(C2CCCCC2)C3)cc1` was tested, and the Potency was “inactive”.
With `COc1ccccc1OCCCC(=O)Nc1ccc(N2CCOCC2)cc1` the Potency was inconclusive: 39.8 µM [inhibitor, single point].
In the case of `CCOc1ccc(-n2c(O)c(/C=N/Nc3nnc(C)c(=O)[nH]3)c3ccccc3c2=O)cc1`, the Potency is reported as inconclusive: 14.1 µM [inhibitor, partial curve].
In the case of `Cc1cc(C)c(NC(=O)Cn2c(=O)n(Cc3ccco3)c(=O)c3ccc(C(=O)NC4CCCC4)cc32)c(C)c1`, the Potency is reported as “inactive”.
In the case of `COC(=O)CCc1sc(Nc2ccccc2)nc1-c1ccc(OC)cc1`, the Potency is reported as inconclusive: 12.6 µM [inhibitor, partial curve].
`O=C(NCC(c1cccnc1)N1CCc2ccccc2C1)C(=O)Nc1ccc(Cl)cc1` (stereo unspecified) was tested, and the Potency was inconclusive: 2.51 µM [inhibitor, full curve].
In the case of `Cc1ccc(-c2noc(CSc3nnc(Cc4ccccc4)n3-c3cccc(C)c3)n2)cc1`, the Potency is reported as inconclusive: 17.8 µM [inhibitor, partial curve, poor fit].
In the case of `CCn1ccnc1CN(C)Cc1cn(-c2ccc(C)cc2)nc1-c1ccc(F)cc1`, the Potency is reported as inconclusive: 35.5 µM [inhibitor, single point].
